# Results from the supplement of paper PMC9135407.
# Values joined by “and” are separate entries in the source; they are usually repeats but may differ in a detail not shown here. Equal entries are not always repeated. Structures can show the parent of a compound that is named as a salt. The whole screen tested about 5,800 compounds, of which about 620 (11%) showed activity.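 The calls were made as follows: active = score above a cut-off or among the top three wells of a plate; in these data no inactive exceeds 0.85.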 The entries are a selection whose mix differs from that of the whole data set.
# System: primary human hepatic stellate cells (donor 1)
# Experiment: scaled lipid accumulation score (0 = DMSO-like, 1 = nortriptyline-like); higher = stronger HSC inactivation (lipid re-accumulation), active = hit call of the paper
# Details: 48 h
# [1] = library stock concentration: 3.33 mM
# [2] = library stock concentration: 10 mM
# [3] = library stock concentration: 6.4 mM
# [4] = library stock concentration: 1 mM
# [5] = library stock concentration: 80 uM
# [6] = library stock concentration: 400 uM
# [7] = library stock concentration: 2 mM
smiles,measurement,setting,value
O=C(Nc1ncc(SCCN2CCCC2)s1)[C@]1(c2ccc(S(=O)(=O)C3CC3)cc2)C[C@@H]1C1CCCCC1,scaled lipid accumulation score,[1],active: 1.12
c1ccc(-c2ccc(C(c3ccccc3)n3ccnc3)cc2)cc1 (centres undefined),scaled lipid accumulation score,[2],inactive: ≤ 0
c1ccc(-c2ccc(C(c3ccccc3)n3ccnc3)cc2)cc1 (centres undefined) [Bifonazole],scaled lipid accumulation score,[1],inactive: ≤ 0
same,scaled lipid accumulation score,[3],inactive: ≤ 0 and inactive: 0.162
same,scaled lipid accumulation score,[2],inactive: 0.138 and inactive: ≤ -0.027
Oc1c(Cl)cc(Cl)c2cccnc12 [Chloroxine],scaled lipid accumulation score,[1],inactive: 0.008
same,scaled lipid accumulation score,library stock concentration: 9.3 mM,inactive: ≤ 0
same,scaled lipid accumulation score,[2],inactive: 0.067 and inactive: ≤ 0
CCOc1nc2cccc(C(=O)O)c2n1Cc1ccc(-c2ccccc2-c2nnn[nH]2)cc1 [Candesartan],scaled lipid accumulation score,[1],inactive: 0.024
same,scaled lipid accumulation score,library stock concentration: 4.5 mM,inactive: ≤ -0.006
same,scaled lipid accumulation score,[2],inactive: ≤ 0
CCN(CC)CCCCNc1ncc2cc(-c3c(Cl)cccc3Cl)c(NC(=O)NC(C)(C)C)nc2n1,scaled lipid accumulation score,[2],active: 1.41
C[C@@](Cc1ccc(O)c(O)c1)(NN)C(=O)O [Carbidopa],scaled lipid accumulation score,[1],inactive: ≤ 0
same,scaled lipid accumulation score,library stock concentration: 8.8 mM,inactive: 0.006 and inactive: ≤ 0
same,scaled lipid accumulation score,[2],inactive: ≤ 0
C[C@@](Cc1ccc(O)c(O)c1)(NN)C(=O)O,scaled lipid accumulation score,[2],inactive: 0.021
O=C[C@@H]1CCCN1C(=O)[C@@H]1CCCN1C(=O)OCc1ccccc1 [Z-prolyl-prolinal],scaled lipid accumulation score,library stock concentration: 15.1 mM,inactive: 0.107
CC1CCN(CC[C@H]2CCCN2S(=O)(=O)c2cccc(O)c2)CC1,scaled lipid accumulation score,[1],inactive: ≤ 0
same,scaled lipid accumulation score,[2],inactive: ≤ 0 and inactive: 0.019
Nc1ncnc2c1ncn2[C@@H]1O[C@H](CO)[C@@H](O)[C@@H]1O [Vidarabine],scaled lipid accumulation score,,inactive: ≤ 0
same,scaled lipid accumulation score,[1],inactive: ≤ 0
same,scaled lipid accumulation score,library stock concentration: 7.5 mM,inactive: ≤ 0
same,scaled lipid accumulation score,[2],inactive: ≤ 0
C[C@H]1C[C@H]2[C@@H]3CCC4=CC(=O)C=C[C@]4(C)[C@@]3(F)[C@@H](O)C[C@]2(C)[C@@]1(O)C(=O)COP(=O)(O)O,scaled lipid accumulation score,[2],inactive: ≤ 0
CCCCC(CC)COC(=O)CC(C(=O)OCC(CC)CCCC)S(=O)(=O)O (centres undefined),scaled lipid accumulation score,[2],inactive: ≤ 0
Cc1[nH]cnc1CN1CCc2c(c3ccccc3n2C)C1=O,scaled lipid accumulation score,[2],inactive: ≤ 0
O=C1NC(=O)c2cc(Nc3ccccc3)c(Nc3ccccc3)cc21,scaled lipid accumulation score,[2],inactive: 0.353 and inactive: 0.003
CC(C)c1ccccc1Cc1cc(C(=O)Nc2ccc(S(=O)(=O)c3ccccc3C(C)(C)C)cc2)c(O)c(O)c1O,scaled lipid accumulation score,[1],inactive: ≤ 0
same,scaled lipid accumulation score,[2],inactive: ≤ 0
CC(=O)O[C@@H]1C[C@H]2C(C)(C)C(=O)C=C[C@]2(C)[C@H]2CC[C@@]3(C)[C@H](c4ccoc4)OC(=O)[C@H]4O[C@]43[C@@]21C [Gedunin],scaled lipid accumulation score,[2],inactive: 0.146 and inactive: 0.214
O=C(Nc1ccc2[nH]nc(-c3ccncc3)c2c1)[C@@H]1CCN(CC(=O)N2CCN(c3ccc(-c4ncccn4)cc3)CC2)C1,scaled lipid accumulation score,[2],active: 0.909
O=C(O)CCc1ccc(NCc2cccc(Oc3ccccc3)c2)cc1,scaled lipid accumulation score,[4],inactive: ≤ 0
same,scaled lipid accumulation score,[1],inactive: ≤ -0.009
same,scaled lipid accumulation score,[2],inactive: ≤ 0 and inactive: ≤ -0.07 and inactive: ≤ -0.001
Cc1cc2nc3c(=O)[nH]c(=O)nc-3n(C[C@H](O)[C@H](O)[C@H](O)CO)c2cc1C [Riboflavin],scaled lipid accumulation score,library stock concentration: 5.3 mM,inactive: ≤ 0
same,scaled lipid accumulation score,[2],inactive: ≤ -0.027
Cc1cc2nc3c(=O)[nH]c(=O)nc-3n(C[C@H](O)[C@H](O)[C@H](O)CO)c2cc1C [Riboflavine],scaled lipid accumulation score,,inactive: 0.134
CCCOc1ccc2[nH]c(NC(=O)OC)nc2c1 [Oxibendazole],scaled lipid accumulation score,library stock concentration: 8 mM,inactive: 0.055 and inactive: 0.012
same,scaled lipid accumulation score,[2],inactive: ≤ -0.024
CC(C)(CO)Cc1cc(C(C)(C)C)c(O)c(C(C)(C)C)c1,scaled lipid accumulation score,[2],active: 0.861
CN(CCCN1c2ccccc2CCc2ccccc21)CC(=O)c1ccc(Cl)cc1 [Lofepramine],scaled lipid accumulation score,[2],inactive: 0.323
CN(CCCN1c2ccccc2CCc2ccccc21)CC(=O)c1ccc(Cl)cc1,scaled lipid accumulation score,[2],inactive: 0.191
CN(C)CCOC(c1ccccc1)c1ccccc1.Cn1c(=O)c2[nH]c(Cl)nc2n(C)c1=O [Dimenhydrinate],scaled lipid accumulation score,,inactive: 0.238
same,scaled lipid accumulation score,[2],inactive: ≤ 0
CCS(=O)(=O)N1CC(CC#N)(n2cc(-c3ncnc4[nH]ccc34)cn2)C1,scaled lipid accumulation score,[1],inactive: ≤ 0
same,scaled lipid accumulation score,[2],inactive: ≤ 0
CCS(=O)(=O)N1CC(CC#N)(n2cc(-c3ncnc4[nH]ccc34)cn2)C1 [Baricitinib],scaled lipid accumulation score,[5],inactive: ≤ -0.016
same,scaled lipid accumulation score,[6],inactive: ≤ -0.016
same,scaled lipid accumulation score,[7],inactive: ≤ -0.016
same,scaled lipid accumulation score,[2],inactive: 0.04
"COC(=O)c1ccc2c(c1)NC(=O)/C2=C(\Nc1ccc(N(C)C(=O)CN2CCN(C)CC2)cc1)c1ccccc1 [Intedanib (BIBF 1120, Vargatef) (10 mM)]",scaled lipid accumulation score,[2],active: 1.51
CSC(=N)N [S-methyl Isothiourea (hemisulfate)],scaled lipid accumulation score,[4],inactive: ≤ 0
CSC(=N)N [S-Methylisothiourea hemisulfate],scaled lipid accumulation score,[2],inactive: ≤ -0.055
O=C(O)CCC/C=C\C[C@@H]1[C@@H](CC[C@@H](O)CCc2cccc(C(F)(F)F)c2)[C@H](O)C[C@@H]1O,scaled lipid accumulation score,[4],inactive: ≤ 0
CS(=O)(=O)O.Cc1ccc(NC(=O)c2ccc(CN3CCN(C)CC3)cc2)cc1Nc1nccc(-c2cccnc2)n1 [Imatinib],scaled lipid accumulation score,[2],active: 0.969
CCCCCC=CCC=CC=CC=CC(SCC(NC(C)=O)C(=O)O)C(O)CCCC(=O)O (centres undefined) [N-Acetyl-leukotriene E4],scaled lipid accumulation score,library stock concentration: 100 uM,inactive: 0.032
O=C1NCC2(CCN(CCc3ccccc3)CC2)O1 [Fenspiride HCl],scaled lipid accumulation score,[1],inactive: ≤ 0
same,scaled lipid accumulation score,[2],inactive: ≤ -0.001
O=C1NCC2(CCN(CCc3ccccc3)CC2)O1 [Fenspiride hydrochloride],scaled lipid accumulation score,,inactive: 0.11
same,scaled lipid accumulation score,library stock concentration: 6.7 mM,inactive: 0.002
same,scaled lipid accumulation score,[2],inactive: ≤ 0 and inactive: ≤ -0.018
Clc1ccc2c(c1)CCc1cccnc1C2=C1CCNCC1 [Desloratadine],scaled lipid accumulation score,[1],inactive: 0.268
same,scaled lipid accumulation score,[2],inactive: 0.837
Clc1ccc2c(c1)CCc1cccnc1C2=C1CCNCC1 [Desloratidine],scaled lipid accumulation score,[3],inactive: 0.46
Cl.N[C@@H](CCC(=O)O)C(=O)O [L-Glutamic acid hydrochloride],scaled lipid accumulation score,[2],inactive: ≤ -0.07
O=C1C[C@@H]2[C@@H](CC[C@@H](O)CCc3ccccc3)[C@H](O)C[C@@H]2O1 [Latanoprost Lactone Diol],scaled lipid accumulation score,[4],inactive: 0.003
COc1ccc(S(=O)(=O)N(CCO)c2ccccc2CN(C)CC=Cc2ccc(Cl)cc2)cc1.O=P(=O)OO.[H] [KN-93 Phosphate],scaled lipid accumulation score,[2],active: 1.07
CC(=O)[C@@]1(O)CC[C@H]2[C@@H]3CCC4=CC(=O)CC[C@]4(C)[C@H]3CC[C@@]21C [17alpha-hydroxyprogesterone],scaled lipid accumulation score,[2],inactive: ≤ -0.07
CC(=O)[C@@]1(O)CC[C@H]2[C@@H]3CCC4=CC(=O)CC[C@]4(C)[C@H]3CC[C@@]21C,scaled lipid accumulation score,[2],inactive: ≤ 0
Nc1nccc(Oc2ccc(NC(=O)c3c[nH]cc(-c4ccc(F)cc4)c3=O)cc2F)c1Cl,scaled lipid accumulation score,[1],inactive: ≤ 0
same,scaled lipid accumulation score,[2],inactive: 0.182
Cc1nc2c(-c3cnc(N)nc3)nc(N3CCOCC3)nc2n1C(C)C,scaled lipid accumulation score,[1],inactive: 0.019
same,scaled lipid accumulation score,[2],inactive: ≤ -0.001
NC(=O)Nc1cc(-c2cccc(F)c2)sc1C(=O)N[C@H]1CCCNC1,scaled lipid accumulation score,[5],inactive: ≤ 0
same,scaled lipid accumulation score,[6],inactive: 0.06 and inactive: ≤ -0.005
same,scaled lipid accumulation score,[7],inactive: 0.23 and inactive: 0.444
same,scaled lipid accumulation score,[2],inactive: 0.559 and inactive: 0.276
O=C(c1ccc(F)cc1)C1CCN(CCn2c(=O)[nH]c3ccccc3c2=O)CC1 [Ketanserin tartrate],scaled lipid accumulation score,library stock concentration: 5.1 mM,inactive: 0.139 and inactive: ≤ 0
same,scaled lipid accumulation score,[2],inactive: ≤ 0 and inactive: 0.066 and inactive: 0.175
O=C(c1ccc(F)cc1)C1CCN(CCn2c(=O)[nH]c3ccccc3c2=O)CC1 [Ketanserin tartrate hydrate],scaled lipid accumulation score,,inactive: 0.115
O=C(c1ccc(F)cc1)C1CCN(CCn2c(=O)[nH]c3ccccc3c2=O)CC1 [Ketanserin],scaled lipid accumulation score,[1],inactive: 0.005
same,scaled lipid accumulation score,[2],inactive: ≤ 0
"CC[C@@H](CO)Nc1nc(NCc2ccc(-c3ccccn3)cc2)c2ncn(C(C)C)c2n1 [CR8, (S)-Isomer]",scaled lipid accumulation score,[1],inactive: ≤ 0
CCN(CC)C(=O)c1ccc(O)c(OC)c1 [Ethamivan],scaled lipid accumulation score,,inactive: 0.045
same,scaled lipid accumulation score,library stock concentration: 9 mM,inactive: ≤ 0
CCN(CC)C(=O)c1ccc(O)c(OC)c1 [Vanillic acid diethylamide],scaled lipid accumulation score,[2],inactive: 0.074
Cc1noc(NS(=O)(=O)c2cccc3c(N(C)C)cccc23)c1C,scaled lipid accumulation score,[2],inactive: ≤ -0.006
COc1ccc(-c2cc(=O)c3c(O)c(OC)c(OC)c(OC)c3o2)cc1 [Gardenin b],scaled lipid accumulation score,[2],inactive: 0.187
NC1(C(=O)O)CC1 [1-Aminocyclopropanecarboxylic acid hydrochloride],scaled lipid accumulation score,[2],inactive: 0.058
CN(C)c1ccc(-c2nc3c(N4CCN(CC(=O)Nc5nccs5)CC4)c(Cl)cnc3[nH]2)cc1,scaled lipid accumulation score,[1],active: 0.858
same,scaled lipid accumulation score,[2],active: 0.949
CCCCCCCCCCCCCCCC(=O)OC[C@H](O)[C@H]1OC(=O)C(O)=C1O [Ascorbyl palmitate],scaled lipid accumulation score,library stock concentration: 4.8 mM,inactive: 0.002
CCCCCCCCCCCCCCCCOC[C@H](COP(=O)([O-])OCCCCCC[N+](C)(C)C)OC(C)=O [Hexanolamino PAF C-16],scaled lipid accumulation score,[4],inactive: ≤ 0
COc1ccc(C2(O)OC(=O)C(c3ccc4c(c3)OCO4)=C2Cc2cc(OC)c(OC)c(OC)c2)cc1 (centres undefined),scaled lipid accumulation score,[2],inactive: 0.037
